Results taken from PubChem BioAssay AID493208 (National Center for Advancing Translational Sciences (NCATS), 2011).
Hit rate of the full screen: of about 44,000 compounds, about 340 (0.77%) were called active. About 5% were inconclusive and are not listed. Calls come from the whole dose curve; as a rule, active = well fitted inhibition curve with a large enough effect; inconclusive = small, poorly fitted or top-dose-only effect; inactive = flat fitted curve, though single readings scatter. The list shows a part of the results.

test: Acumen qHTS Assay for Inhibitors of the mTORC1 Signaling Pathway in MEF (Tsc2-/-, p53-/-) Cells: Sytravon; settings: phospho-rpS6 immunofluorescence/PI, 24 h; series mostly up to 38.3 µM; activity change, negative = inhibition: at the top concentration; note: nearly all actives have a fitted effect of over 50% in size;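 for activity change, negative = inhibition: plate controls were DMSO for no effect and rapamycin for full effect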
How it was run: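 Readout is phospho-S6 Alexa 488 signal normalized to PI per well, reported as % active cells with thresholds set from rapamycin (7.5 nM) and DMSO controls. Cells: Tsc2-/-, p53-/- MEFs, 24 hrs compound at 37 C; PI cell number serves as viability.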
Potency is the fitted concentration of half-maximal effect.

Activity change, negative = inhibition, inactive:
O=C(CCSCc1ccccc1Cl)N1CCN(c2cccc(Cl)c2)CC1 12.7%
CCCn1c(CCC(=O)Nc2cc(Cl)c(OC)cc2OC)nc2cccnc21 -20.3%
Cc1ccc(C)c(NC(=O)CSc2ncc3c(n2)-c2ccc(Cl)cc2N(C)S3(=O)=O)c1 2.28%
CCn1nc(-c2ccccc2)c(-c2ccccc2)c(C(=O)Nc2nc(C)c(C(=O)N(C)C)s2)c1=O -10.8%
CCc1nc2cccnc2n1-c1ccc(CC(=O)Nc2ccc(C)cc2)cc1 -3.16%
O=C(Cn1c(=O)n(-c2ccccc2Cl)c(=O)c2sc3ccccc3c21)N1CCCC1 -8.4%
CCOc1ccc(CNC(=O)c2cnc3sc(N(CC)CC)nn3c2=O)cc1OC 10.4%
CC(C)N(Cc1ccccc1)C(=O)CN1C(=O)COc2ccc(S(=O)(=O)NC3CCCC3)cc21 1.73%
Cc1cc(C)cc(NC(=O)CCc2nnc3n(CC(C)C)c(=O)c4ccccc4n23)c1 -0.7%
Cc1ccc(NC(=O)CSc2nc3nccnc3c(=O)n2CCc2c[nH]c3ccccc23)cc1 0%
CCN(C(=O)CSc1nc2ccccc2n1CC(=O)Nc1ccccc1C)c1ccccc1 -3.23%
COc1cc(CNc2ccc3[nH]c(=O)[nH]c3c2)ccc1OCc1ccccc1F -1.82%
COc1ccc(-n2ccn(Cc3ccccc3Cl)c(=O)c2=O)cc1OC 4.95%
CN(C)c1ccc(C(CNS(=O)(=O)c2ccc(Br)cc2)N2CCCC2)cc1 (configuration not stated) 0.342%
COc1ccc(Cl)cc1NC(=O)CSc1ccc(-c2sc(C)nc2C)nn1 0.128%
CC(C)Cc1nn2c(=O)cc(COC(=O)c3ccc4c(c3)OCO4)nc2s1 0.936%
CCOC(=O)c1cc2c(=O)n3ccccc3nc2n(CCCOC)c1=NC(=O)C(C)(C)Oc1ccc(Cl)cc1 1.88%
COc1ccc(CNC(=O)CSc2nc3ccsc3c(=O)n2Cc2ccccc2Cl)cc1 -23.3%
CCc1ccc(N2C(=O)CC(c3cc(OC)ccc3OC)C3=C2COC3=O)cc1 (configuration not stated) -24.5%
O=C(Nc1ccc2oc(-c3cccnc3)nc2c1)c1ccc(-c2ccc(Cl)cc2)o1 -2.22%
Cc1cc2oc(C(=O)Nc3sc4c(c3C(=O)NCC3CCCO3)CCC4)cc(=O)c2cc1C (configuration not stated) 3.92%
Cc1ccc(NC(=O)Cn2ncn3c(cc4ccccc43)c2=O)c(C)c1 -0.95%
CCOc1ccc(C2CC(=O)n3nc(-c4ccc(C)cc4)nc3S2)cc1 (configuration not stated) 16.5%
COc1ccccc1CNC(=O)Cc1csc2nc(-c3ccc(Cl)cc3)cn12 -8%
CC(NC(=O)c1ccc2c(c1)N(Cc1ccc(Cl)cc1)C(=O)c1ccccc1S2(=O)=O)c1ccccc1 (configuration not stated) 3.43%
CCOc1cc2sc(N3CCC(C(=O)Nc4ccc(C)cc4)CC3)nc2cc1Br -2.46%
CCCCCn1c(=N)c(S(=O)(=O)c2ccccc2)cc2c(=O)n3ccccc3nc21 -7.54%
CCOc1ccc(CCNC(=O)Cn2nc(CC)n3c(cc4sc(CC)cc43)c2=O)cc1OCC -8.12%
O=c1oc2c(CN3CCOCC3)c(O)ccc2cc1-c1ccc(Cl)cc1 -9.52%
CCn1c(=O)c2cc(C(=O)NC3CCCCCC3)sc2c2ccccc21 -7.6%
CCOC(=O)c1sc(NC(=O)c2nc3ncccn3n2)c(C(=O)OC)c1C 9.41%
COc1ccc(CNC(=O)CN(c2ccccc2OC)S(=O)(=O)c2ccc(C)cc2)cc1 -15.4%
CCc1ccc(CSc2nc(-c3ccc(OC)cc3)nc3c2Cc2c(CO)cnc(C)c2O3)cc1 3.34%
O=S(=O)(NCc1ccccc1)c1ccc(-c2cnc(C3CC3)o2)cc1 14.5%
COc1ccc(CCNC(=O)CCCCn2c(=O)c3ccccc3n(CC(=O)Nc3ccccc3C)c2=O)cc1OC -19.6%
CCCOc1cccc(C(=O)Nc2ccc(-c3nc4ccccc4s3)c(Cl)c2)c1 -8.98%
CCc1ccccc1NC(=O)Cn1c(=O)nc(-c2ccccc2)c2ccccc21 0%
COc1ccc(CCNC(=O)CCn2c(=O)c3ccccc3n(Cc3ccc(Cl)cc3)c2=O)cc1OC -4.01%
CCn1c2c(c(=O)n3ncc(C(=O)Nc4cccc(Cl)c4C)c13)CN(Cc1ccc(OC)cc1)CC2 1.59%
CCOC(=O)c1c(C)[nH]c(C)c1S(=O)(=O)N1CCC(C(=O)NCc2ccc(C)cc2)CC1 6.06%
C=C(C)CSc1nc2sc3c(c2c(=O)n1CCCC)CCCC3 2.32%
Cc1cc(C)cc(NC(=O)CSc2nncn3c2cc2occc23)c1 -9.25%
CCCC(O)c1nc2ccccc2n1CCCCOc1ccc(OC)cc1 (configuration not stated) -0.502%
CCCn1c(SCC(O)c2cccc(OC)c2)nc2ccccc21 (configuration not stated) 2.17%
O=C(Nc1ccc(N2CCN(CCOc3ccc(Cl)cc3)CC2)c(C(=O)O)c1)c1ccc(F)cc1 -0.705%

Potency, active:
CCN(CC)S(=O)(=O)c1ccc(NC(=O)CCc2c(C)nc3cc(-c4ccc(Cl)cc4)nn3c2C)cc1 11.7 µM
COc1ccc(CNC(=O)C2CCN(c3nc4ccc(C)cc4[nH]3)CC2)cc1 13.1 µM
